Over roughly 110,000 compounds, “z-score” has its median near -0.1; the highest 2% begin near 2. Some of the results follow. The source made the active and inactive calls.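 Rule for the calls: active = z-score in the third read window above 3 or below -3; inactive = the rest.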
These molecules were tested against Metabotropic glutamate receptor 8 (Rattus norvegicus) (UniProt P70579) (assay: mGluR8 Gi/Go-coupled signaling modulation – cell-based, rat, thallium flux, HTS, primary screen (AID 488969)). Details: HEK293 rat mGluR8, GIRK (G protein-gated inwardly rectifying potassium channel) thallium flux, FluoZin2; at 10 µM; stronger effect = higher value; submaximal glutamate (EC20) added with thallium.
Chain of UniProt P70579 (P70579 whole entry, looked up): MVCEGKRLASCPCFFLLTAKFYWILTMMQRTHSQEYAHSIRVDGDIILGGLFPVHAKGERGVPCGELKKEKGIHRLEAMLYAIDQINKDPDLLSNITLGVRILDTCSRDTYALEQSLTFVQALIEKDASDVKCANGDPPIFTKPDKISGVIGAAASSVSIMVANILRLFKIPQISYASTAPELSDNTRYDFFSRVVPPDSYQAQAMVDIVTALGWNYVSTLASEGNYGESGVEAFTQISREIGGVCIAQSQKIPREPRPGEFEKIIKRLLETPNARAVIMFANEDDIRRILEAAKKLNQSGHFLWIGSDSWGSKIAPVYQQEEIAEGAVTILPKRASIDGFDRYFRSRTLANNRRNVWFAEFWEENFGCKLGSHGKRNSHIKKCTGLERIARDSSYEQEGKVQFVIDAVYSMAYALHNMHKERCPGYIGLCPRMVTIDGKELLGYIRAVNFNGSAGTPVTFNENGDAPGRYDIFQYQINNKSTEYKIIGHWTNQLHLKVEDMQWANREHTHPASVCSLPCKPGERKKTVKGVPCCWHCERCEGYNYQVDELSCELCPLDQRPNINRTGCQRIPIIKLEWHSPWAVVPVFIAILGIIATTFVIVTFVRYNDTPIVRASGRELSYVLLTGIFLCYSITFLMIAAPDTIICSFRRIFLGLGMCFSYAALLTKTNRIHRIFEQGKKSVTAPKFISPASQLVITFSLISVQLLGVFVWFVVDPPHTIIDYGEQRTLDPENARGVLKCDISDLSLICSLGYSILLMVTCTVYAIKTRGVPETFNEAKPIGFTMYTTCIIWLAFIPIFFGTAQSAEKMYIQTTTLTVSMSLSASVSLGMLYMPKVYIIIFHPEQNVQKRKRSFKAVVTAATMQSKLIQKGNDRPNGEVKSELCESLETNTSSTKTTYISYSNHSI

In order of falling z-score:
1. CCS(=O)(=O)n1nc(-c2ccccc2)nc1NCc1ccco1  2.2
2. Cc1ccc2nc(/C(C#N)=C\c3ccc(N4CCCCC4)c([N+](=O)[O-])c3)[nH]c2c1  1.72
3. CCN(CC)S(=O)(=O)c1ccc(NC(=O)c2ccc(NS(C)(=O)=O)cc2)cc1  1.67
4. Cc1cccnc1NC(=O)Nc1cccc(C(F)(F)F)c1  1.5
5. C=CCNc1oc(-c2ccc(OC)cc2)nc1C#N  1.04
6. Cc1ccccc1Nc1nc(=O)c2cc([N+](=O)[O-])ccc2s1  0.941
7. CCNC(=S)Nc1ccc(Oc2ccccc2)cc1  0.818
8. O=C(N/N=C/c1ccc2c(c1)OCO2)c1sc2cccc(Cl)c2c1Cl  0.529
9. Cc1ccc(N2C(=O)CSC2c2ccccn2)cc1Cl (centres undefined)  0.508
10. CCc1[nH]nc2c1C(c1ccncc1)C(C#N)=C(N)O2 (centres undefined)  0.499
11. CCC(NC(=O)NCc1ccc2c(c1)OCO2)(C(F)(F)F)C(F)(F)F  0.489
12. CCS(=O)(=O)N1Cc2ccccc2CC1C(=O)Nc1nc2ccc(F)cc2s1 (centres undefined)  0.444
13. COC(=O)c1cc(NC(=O)c2cc(C)oc2C)cc(C(=O)OC)c1  0.433
14. COc1ccc(-n2c(SCC(=O)NNC(=O)c3ccc(C)cc3)nnc2-c2ccncc2)cc1  0.401
15. Cc1nc(C)c(C(=O)C2=C(O)C(=O)N(CCN3CCOCC3)C2c2ccco2)s1 (centres undefined)  0.392
16. CCOc1cccc(C(=O)N(Cc2ccc(F)cc2)C2CCS(=O)(=O)C2)c1 (centres undefined)  0.373
17. O=C(O)C1C2C=CC(C2)C1C(=O)Nc1ccc(C(=O)N2CCCCC2)cc1 (centres undefined)  0.353
18. CC(Oc1ccccc1)C(=O)NC1CC(C)(C)NC(C)(C)C1 (centres undefined)  0.315
19. CCOC(=O)c1ccc(NC(=O)CC2C(=O)N(c3cccc(OC)c3)C(=O)N2CCOC)cc1 (centres undefined)  0.306
20. Cc1cccc(C)c1NC(=S)NNc1ncc(C(F)(F)F)cc1Cl  0.289
21. COc1ccc(OC)c(S(=O)(=O)Nc2ccc(O)c(Sc3ncn[nH]3)c2)c1  0.284
22. O=S(=O)(NCc1ccc(Cl)cc1)c1cnc[nH]1  0.261
23. Cc1c(NC(=O)/C(C#N)=C/c2ccc(-c3cc(Cl)ccc3Cl)o2)c(=O)n(-c2ccccc2)n1C  0.245
24. CCCCSc1nnc2[nH]c(=O)cc(N)n12  0.203
25. Cc1nnsc1NC(=O)OCCCl  0.188
26. COc1ccc(CC(=O)Nc2cccc(S(=O)(=O)N3CCCCCC3)c2)cc1OC  0.183
27. Cn1ncc2c(Nc3cccc4ccccc34)ncnc21  0.18
28. COc1ccc(OC)c(S(=O)(=O)n2cnc3cc(C)c(C)cc32)c1  0.123
29. CC1(C)CC(NC(=O)CC2CCCCC2)CC(C)(C)N1  0.12
30. CC(CN(C)Cc1ccccc1)OC(=O)C1COc2ccccc2O1 (centres undefined)  0.0724
31. Cc1cc(O)c(C(C)C)cc1N=C1CSC(=O)N1  0.0721
32. Cc1c(Nc2cc(N3CCCC(C)C3)c3nonc3c2[N+](=O)[O-])c(=O)n(-c2ccccc2)n1C (centres undefined)  0.0707
33. CC(Oc1ccc(Cl)cc1Cl)C(=O)N/N=C1\CCCc2ccccc21 (centres undefined)  0.0705
34. Cc1cc(NC(=O)c2cnn3c(C(F)F)cc(C4CC4)nc23)no1  0.069
35. COC(=O)c1ccc(C(C(=O)NCc2ccccc2)N(Cc2ccco2)C(=O)c2cnccn2)cc1 (centres undefined)  0.053
36. CN(C(=O)CSc1nnc(Cc2cccc3ccccc23)n1N)C1CCS(=O)(=O)C1 (centres undefined)  0.0476
37. O=c1cc(O)c2sc3nc(-c4cccnc4)cc(C(F)(F)F)c3c2[nH]1  0.0403
38. COc1ccc(C(=O)OC(C(=O)c2ccc(C)cc2)c2ccccc2)cc1 (centres undefined)  0.0355
39. COC(=O)c1ccc(N=NN2CCCCCC2)cc1  0.0254
40. Cc1nc2nc(-c3ccc(Cl)cc3)cn2nc1C  0.0194
41. O=C(COc1ccccc1)Nc1ccc2c(c1)nc1n2CCOC1  0.00921
42. COc1ccc(Cn2c(-c3ccc(Cl)cc3)c[n+]3ccccc23)cc1  0.00141
43. Cc1ccc(SCCC(=O)N2CCC(C)CC2)cc1  -0.0062
44. Cc1ccccc1C(=O)NC(NCc1ccco1)C(Cl)(Cl)Cl (centres undefined)  -0.00799
45. c1csc(-c2noc(COc3ccc4c(c3)CCCC4)n2)c1  -0.0174
46. CCCn1nnnc1SCC(=O)Nc1nnc(CC)s1  -0.0261
47. CC(=O)c1ccc(NC(=O)C(C)OC(=O)COc2ccc(C#N)cc2)cc1 (centres undefined)  -0.0343
48. CCCCn1c(SCC(=O)N2CCCC2)nnc1-c1ccccc1  -0.0352
49. CCOc1ccc(S(=O)(=O)Nc2ccc(S(=O)(=O)N3CCOCC3)cc2)cc1  -0.0372
50. O=C(Nc1nc2ccc(S(=O)(=O)N3CCCC3)cc2s1)C1CCCCC1  -0.0404
51. CCOC(=O)c1c(=O)n(O)c2ccc(OC)cc2[n+]1[O-]  -0.0541
52. CCn1c(CNc2ccc(Cl)cc2)nnc1SCc1ccc(Cl)cc1  -0.0561
53. Cc1ccccc1Cn1ccc(NC(=O)c2cnn3c2NC(c2ccccc2)CC3C(F)(F)F)n1 (centres undefined)  -0.0576
54. O=C(CCl)N(c1ccccc1)c1c[nH]c2ccccc12  -0.0644
55. CCN(c1ccc(OC)cc1)S(=O)(=O)c1ccc2c(c1)CCN2C(=O)CCC(=O)O  -0.0659
56. O=C(CN1C(=O)COc2ccccc21)Nc1ccc(F)cc1  -0.0719
57. CCCCCC(=O)N/N=C/c1cccs1  -0.0798
58. Cc1nc2sc3c(c2c(=N)n1N)CC(C)(C)OC3  -0.083
59. Cc1ccc(NC(=O)C2C3CCCC2C3c2ccccc2)cc1 (centres undefined)  -0.0846
60. COc1cccc(S(=O)(=O)Nc2cccc(C(=O)N3CCOCC3)c2)c1  -0.0885
61. COC(=O)C1=C(C)NC(C)=C(C(=O)OC)C1C(=O)OC1CCCCC1=O (centres undefined)  -0.107
62. COc1ccc(N(CC(=O)N2CC=C(c3ccccc3)CC2)S(=O)(=O)c2c(C)noc2C)cc1  -0.127
63. COc1cc(C(=O)Sc2ccc(Cl)cc2)cc(OC)c1OC  -0.128
64. CCN(CC)C(=O)C1CCCN(C(=O)Nc2ccc3nsnc3c2)C1 (centres undefined)  -0.135
65. CCn1ncc(/C=N\NC(=O)c2csc3ccccc23)c1C  -0.141
66. COc1ccc(/C=C/C(=O)N(C(C)C)C(C)C)cc1Br  -0.143
67. O=C(CNC(=O)c1cccc(Br)c1)N/N=C/c1cn[nH]c1-c1ccccc1  -0.145
68. CCOC(=O)c1cc(CC)sc1NC(=O)c1ccc2c(c1)OCCO2  -0.146
69. CC1CC1C(=O)Nc1nc(-c2ccccn2)cs1 (centres undefined)  -0.149
70. CC(=O)Nc1ccc(S(=O)(=O)NNC(=O)c2ccc(C)cc2)cc1  -0.161
71. O=C(COC(=O)c1ccco1)c1ccc2ccccc2c1  -0.17
72. Cn1c(=O)c2c(nc(NCc3ccco3)n2Cc2ccc(Cl)cc2Cl)n(C)c1=O  -0.172
73. CC(=O)CSc1nc(N)c(C#N)c(-c2cccs2)c1C#N  -0.18
74. O=[N+]([O-])c1cc(Cl)ccc1-c1nc(-c2ccccc2)no1  -0.192
75. O/N=C/c1ccccc1OCc1ccccc1Cl  -0.196
76. CCOc1ccccc1NC(=S)N1CCC(NC(=O)NC23CC4CC(CC(C4)C2)C3)CC1  -0.207
77. CSCc1ccc(C(=O)NCc2ccc(F)cc2)cc1  -0.21
78. COC(=O)C(NC(C)=O)(Nc1nc2ccc(C)cc2s1)C(F)(F)F (centres undefined)  -0.214
79. CCOC(=O)CN1C(=O)S/C(=C/c2cc(C)n(C)c2C)C1=O  -0.226
80. O=C1c2ccccc2C(=O)N1CCCn1nnc(-c2ccc(N3CCOCC3)cc2)n1  -0.232
81. Cc1c(C(=O)Nc2cnccn2)oc2ccccc12  -0.235
82. Cc1ccc(S(=O)(=O)NCC(=O)N(CC(=O)NC2CCCCC2)CC2CCCO2)cc1 (centres undefined)  -0.238
83. Nc1ncc(Br)cc1S(=O)(=O)NCCC(=O)Nc1cccc(Cl)c1  -0.243
84. Cc1ccc(SCc2ccc(C(=O)NCc3ccncc3)cc2)cc1  -0.254
85. CCCC(=O)Nc1ccc(C(=O)NCC2CCCO2)cc1 (centres undefined)  -0.279
86. O=C(NCc1ccco1)/C(=C/c1cccnc1)NC(=O)c1ccco1  -0.286
87. COc1ccc(-c2nn3cnnc3s2)cc1OC  -0.33
88. CCC(=O)Nc1ccc(/C(C)=N/NC(=O)c2c(Br)c(C)nn2C)cc1  -0.331
89. O=C(N/N=C/c1ccccc1Cl)c1cccc(F)c1  -0.342
90. COc1ccccc1CNC(=O)c1ccc(SC)cc1OC  -0.356
91. Cc1ccc(O)c(-c2cc(-c3cccc(F)c3)n[nH]2)c1  -0.374
92. CC(=O)N(C)/C=C1\Sc2ccccc2C1=O  -0.376
93. CCN(CC)CCOc1ncnc2c1oc1ccccc12  -0.381
94. CC(C)(C)NC(=O)CSc1nc(O)cc(=O)n1-c1ccccc1  -0.397
95. O=C(Oc1nsnc1N1CCOCC1)N1CCCC1  -0.403
96. CCOc1c(Br)cc(CNCc2cccs2)cc1OC  -0.405
97. COC(=O)CSc1nnc(CNC(=O)c2cccs2)n1-c1cccc(C)c1  -0.415
98. CC1C/C(=N/N2C(=O)CSC2=S)CC(C)(C)C1 (centres undefined)  -0.42
99. COc1ccc(C(=O)Nc2ccc(NC(=O)c3ccco3)c(Cl)c2)cc1OC  -0.432
100. NC(=O)COc1ccc2c3c(c(=O)oc2c1)CCCCC3  -0.458
101. Cc1ccc(F)cc1NC(=O)c1c(-c2ccccc2)noc1C  -0.466
102. Cc1ccccc1Nc1nc(N)nc(COC(=O)c2ccc(O)cc2)n1  -0.494
103. CCc1nc2oc3cc(OC)ccc3c(=O)c2c(=O)n1Cc1ccco1  -0.537
104. O=C(Nc1ccc(F)cc1)C1CCCCC1  -0.555
105. CCN(C(=O)CN1CCN(C)CC1)c1cccc2ccccc12  -0.614
106. CCCC(=O)NCCCc1nc2ccccc2n1CC  -0.618
107. COc1ccc(-n2cnc3cc(NS(=O)(=O)c4ccc(C)cc4)ccc32)cc1  -0.714
108. COc1ccc(-c2nc(-c3ccc4c(c3)OCO4)[nH]c2-c2ccc(OC)cc2)cc1  -0.776
109. C=CCNC(=O)C1CCCN(S(C)(=O)=O)C1 (centres undefined)  -1.25
110. CC1Cc2ccccc2N1C(=O)Cn1nnc(-c2ccccc2NC(=O)C2CCC2)n1 (centres undefined)  -1.37
111. CN(C)C(=O)N1CCN(C(=O)c2ccco2)CC1  -1.95
112. CCOc1ccccc1-c1c2cc(O)c(=O)cc-2oc2cc(O)c(O)cc12  -2.16
113. Cc1ccsc1C1Nc2ccc3ncccc3c2C2=C1C(=O)CCC2 (centres undefined)  -2.83

With CC(C)Cn1c(=O)c(C2=NS(=O)(=O)c3ccccc3N2)c(O)c2ccccc21 the z-score was active: 5.83.
